Experimental findings from US5770618A, “Method for increasing the solubility of clemastine and pharmaceutical compositions prepared therefrom” (Nastech Pharmaceutical Company, Inc., priority 1996, dated 1998) are described below.

Structures are written as SMILES. Where a name gives a salt, the structure may show the parent alone. Read-outs that look alike come from different tables or passages of the source.

Data set [1] in a line: physchem. Conditions: water.
The nature of data set [2]: physchem.
For data set [3] the following is noted: 24 h.

As a reminder, the solubility (thermodynamic) is solubility found after equilibrating the solid with the medium. Broadly, the solubility is the concentration that dissolves in the medium under given conditions. Read a high solubility as much dissolved substance.

Consider `CN1CCC[C@@H]1CCO[C@](C)(c1ccccc1)c1ccc(Cl)cc1` [Clemastine Fumarate, clemastine fumarate], for which the “Clemastine Fumarate Solubility” value (acetate buffer 0.5 m, pH 5.7) amounted to 24000 µg/mL and the “Clemastine Fumarate Solubility” value (citrate buffer 0.5 m, pH 5.8) amounted to 47000 µg/mL. In addition, the solubility (thermodynamic) at 24 h in the data set “physchem [1]” was below 3000 µg/mL; in the data set “physchem [2]” (aqueous carboxylic acid salts 0.25m), 5040 to 44200 µg/mL; in “physchem [2]” (aqueous carboxylic acid salts 0.5m), 8590 to 82100 µg/mL. For the same compound, the solubility at 24 h in “physchem [1]” (pH 3.9, water) is below 3000 µg/mL; in the data set “physchem [2]” (sodium lactate 0.25 m, pH 5, Clemastine Fumarate Solubility), 5000 µg/mL; in “physchem [2]” (sodium lactate 0.5 m, pH 5.1, Clemastine Fumarate Solubility), 8600 µg/mL; in the data set “physchem [2]” (sodium tartarate 0.25 m, pH 5.1, Clemastine Fumarate Solubility), 9000 µg/mL.
Consider `CN1CCC[C@@H]1CCO[C@](C)(c1ccccc1)c1ccc(Cl)cc1` [clemastine], for which the “Clemastine Fumarate Solubility” value in data set [3] (sodium fumarate 0.25 m, pH 6.2) is 41400 µg/mL; in data set [3] (sodium fumarate 0.5 m, pH 6.4) it was 82100 µg/mL; in data set [3] (sodium maleate 1.0 m, pH 6.8) it was 152600 µg/mL.
